Tests used:
Assay type in all cases: cell-based, human
PC-3 cells = test: Apoptotic (A0) fraction, Table 1, PC-3
Experimental: (§1) Annexin-V binding assay. Cells were trypsinized and washed once with complete media. Aliquots of cells (5×10^5) were resuspended in complete media (0.5 ml) and stained with FITC-labeled Annexin-V (Oncogene Research Products, Boston, Mass.) according to the manufacturer's instructions. Propidium Iodide (PI) was added to the samples after staining with Annexin-V to exclude late apoptotic and necrotic cells. FACS assay was performed immediately after staining. The percentage of the cells in the apoptotic (Ao) fraction was calculated using CellQuest software (Becton Dickinson).
(§2) Cell lines functionally deficient for JAK/STAT signaling were analyzed for susceptibility to killing. A human fibrosarcoma cell line 2f TGH (parental) and corresponding mutant cell lines derived from it were utilized, including U1A (lacking Tyk2), U3A (IFN-unresponsive, lacking STAT 1), U4A (lacking JAK 1) and USA (lacking IFNAR2c)(kind gift of G. Stark, Cleveland Clinic, Ohio). […] First, the profile of IL20/IL22 receptor gene expression in the 2f TGH series of cell lines was determined as described above for other cancer types.

2fTGH cells = test: Apoptotic (A0) fraction, Table 1, 2fTGH
Experimental: as §1, §2

U1A cells (lacking Tyk2) = test: Apoptotic (A0) fraction, Table 1, U1A
Experimental: as §1, §2

[1] = test system: U3A cells (lacking STAT 1); test: Apoptotic (A0) fraction, Table 1, U3A
Experimental: as §1, §2

[2] = test system: U4A cells (lacking JAK 1); test: Apoptotic (A0) fraction, Table 1, U4A
Experimental: as §1, §2

Row | SMILES | proportion of cells with sub G0/G1 (A0) DNA content (PC-3 cells; inhibitor + Ad.mda-7) [%] | proportion of cells with sub G0/G1 (A0) DNA content (PC-3 cells; inhibitor + Ad.vec) [%] | proportion of cells with sub G0/G1 (A0) DNA content (2fTGH cells; inhibitor + Ad.mda-7) [%] | proportion of cells with sub G0/G1 (A0) DNA content (2fTGH cells; inhibitor + Ad.vec) [%] | proportion of cells with sub G0/G1 (A0) DNA content (U1A cells (lacking Tyk2); inhibitor + Ad.mda-7) [%] | proportion of cells with sub G0/G1 (A0) DNA content (U1A cells (lacking Tyk2); inhibitor + Ad.vec) [%] | proportion of cells with sub G0/G1 (A0) DNA content ([1]; inhibitor + Ad.mda-7) [%] | proportion of cells with sub G0/G1 (A0) DNA content ([1]; inhibitor + Ad.vec) [%] | proportion of cells with sub G0/G1 (A0) DNA content ([2]; inhibitor + Ad.mda-7) [%] | proportion of cells with sub G0/G1 (A0) DNA content ([2]; inhibitor + Ad.vec) [%]
1 | O=c1c(-c2ccc(O)cc2)coc2cc(O)cc(O)c12 [Genistein] | 19.10 | 3.73 | 29.85 | 8.14 | 20.83 | 8.03 | 36.29 | 11.67 | 17.94 | 11.97
2 | N#C/C(=C\c1ccc(O)c(O)c1)C(=O)NCc1ccccc1 [AG490] | 25.34 | 4.17 | 18.56 | 5.98 | 17.13 | 6.18 | 30.52 | 12.84 | 20.32 | 9.35
3 | N#CC(C#N)=Cc1ccc(O)c(O)c1 [AG18, tyrphostin AG18] | 19.27 | 4.88 | 15.64 | 4.64 | 18.79 | 7.64 | 32.95 | 11.76 | 36.14 | 10.47

Reference: patent publication US20050250127A1, “Methods for identifying modulators of MDA-7 mediated apoptosis” (priority 2002, published 2005)
